Screen size: about 280,000 compounds; about 2,600 (0.93%) were called active. About 8% were inconclusive and are not listed. The call rests on the fitted dose curve; in most records, active means well fitted curve in the direction sought with a large enough effect; inconclusive means small, poorly fitted or top-dose-only effect; inactive means flat fitted curve, though single readings scatter. Only a part is listed here, and it is no random draw.
Experiment: Counterscreen qHTS for Inhibitors of Tau Fibril Formation, Fluorescence Polarization; further: nearly all actives have a fitted effect of over 55% in size
Settings: tau K18 P301L (four-repeat tau fragment) Alexa594 fluorescence, heparin fibrillization; series mostly up to 57.7 µM; activity change, negative = decrease: at the top concentration
Outline: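 Human K18 P301L tau (15 uM unlabeled plus 0.24 uM Alexa 594-labeled, final) in 100 mM sodium acetate pH 7 was mixed with compound and 20 uM heparin and incubated 6 hr at 37 C.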
With `CCOC(=O)C1CCCN(S(=O)(=O)c2ccc(F)c(C(=O)Nc3ccc(F)c(F)c3)c2)C1` (stereo not given) the “activity change, negative = decrease” value was inactive: -22.3%.
With `CCN(Cc1ccccc1)C(=O)c1nn(-c2ccc(OC)cc2)c(=O)c2c1c1ccccc1n2C` the “activity change, negative = decrease” value was inactive: -19.2%.
With `Nc1c2ccccc2nc2ccccc12` the Potency was “inactive”.
In the case of `N[C@@H](Cc1cc(I)c(Oc2ccc(O)c(I)c2)c(I)c1)C(=O)O`, the “activity change, negative = decrease” value is reported as inactive: -5.97%.
In the case of `Cc1cc(C)cc(NC(=O)Nc2cc(S(=O)(=O)N(C)C)ccc2C)c1`, the Potency is reported as active: 15.8 µM [quencher].
For `CCCOC(=O)c1ccc(Oc2cn[nH]c2-c2ccc(O)cc2O)cc1`, the Potency was active: 5.01 µM [quencher].
With `COC(=O)C1=C(C)NC(C)=C([N+](=O)[O-])C1c1ccccc1C(F)(F)F` (stereo not given) the Potency was “inactive”.
For `COc1cc(-c2nc3cccc(C)n3c2Nc2ccc3c(c2)OCCO3)ccc1O`, the Potency was active: 17.8 µM [quencher].
With `O=Cc1c2[nH]c3ccccc3c2cc2[nH]c3ccccc3c12` the Potency was “inactive”.
For `Cc1cncn1CCc1nc2c3ccccc3nc(SCC(=O)Nc3cccc(Cl)c3)n2n1`, the “activity change, negative = decrease” value was inactive: -0.435%.
With `CNC(=O)c1cc(Nc2nnc(-c3ccc(O)cc3)c3ccccc23)ccc1OC` the “activity change, negative = decrease” value was inactive: -17.5%.
For `O=C1OCCN1C(=O)[C@H]1[C@H](c2ccc(F)cc2)C(c2ccc(F)cc2)=NN1c1ccc(Br)cc1`, the “activity change, negative = decrease” value was inactive: -3.81%.
With `Cc1cc(N2CCOCC2)nc2ccc(NC(=S)NCc3ccc4c(c3)OCO4)cc12` the Potency was active: 14.1 µM [quencher].
For `CCCCN(CC)CCNC(=O)c1nn(-c2ccc(OC)cc2)c(=O)c2c1c1ccccc1n2C`, the “activity change, negative = decrease” value was inactive: -21.2%.
With `COc1ccc(COC(=O)N/N=C2/C[C@@H](O)[C@@H](O)[C@@H]3[C@@H]4C(=O)N(c5cccc(Oc6ccccc6)c5)C(=O)[C@H]4CC[C@H]23)cc1` the activity change, negative = decrease was inactive: -6.58% [at 11.6 µM].
In the case of `Oc1ccc(-c2csc(-c3ccccc3)n2)cc1O`, the Potency is reported as active: 15.8 µM [quencher].
For `O=C1OC(c2ccc(O)cc2)(c2ccc(O)cc2)c2ccccc21`, the “activity change, negative = decrease” value was inactive: -28.2%.
With `CC(/C=N/NC(=O)c1cccs1)=C\c1ccccc1` the “activity change, negative = decrease” value was inactive: -23.4%.
With `Nc1ccccc1C(=O)/C=C/c1ccc2c(c1)OCO2` the Potency was “inactive”.
In the case of `O=C(/C=C/c1cccc([N+](=O)[O-])c1)Nc1cccc(NC(=O)c2cccs2)c1`, the Potency is reported as active: 12.6 µM [quencher].
For `Cc1ccc(C(=O)N/C(=C/c2cccs2)C(=O)NCCc2c[nH]c3ccccc23)cc1`, the “activity change, negative = decrease” value was inactive: 10.2%.
For `COc1cc(C2NC(=O)C(C#N)=C(Nc3cccc(C)c3)S2)ccc1O` (stereo not given), the “activity change, negative = decrease” value was inactive: -10.2%.
With `C[C@](N)(Cc1ccc(O)cc1)C(=O)O` the Potency was “inactive”.
With `COc1ccc2c(c1)O[C@H](c1ccc3c(c1)OCO3)[C@@H](OC(=O)Nc1ccc(C)c(Br)c1)C2=O` the “activity change, negative = decrease” value was inactive: -23.1%.
For `O=C(CSc1nc2c([nH]c3ccccc32)c(=O)n1-c1ccc(F)cc1)NCc1ccco1`, the “activity change, negative = decrease” value was inactive: -17.5%.
With `CCOC(=O)/C(C#N)=C/c1c[nH]c2ccccc12` the “activity change, negative = decrease” value was inactive: 3.38%.
In the case of `Oc1cc2c(cc1O)[C@@H](c1ccccc1)CNCC2`, the “activity change, negative = decrease” value is reported as inactive: -4.53%.
In the case of `Cc1c(Cl)cccc1Nc1ccccc1C(=O)O`, the “activity change, negative = decrease” value is reported as inactive: -10.1%.
For `O=C(c1cc2c(s1)-c1ccccc1OC2)N1CCN(c2ccccc2)CC1`, the “activity change, negative = decrease” value was inactive: 4.33%.
With `O=c1cc(-c2cc(O)c(O)c(O)c2)oc2cc(O)cc(O)c12` the Potency was active: 15.8 µM [quencher].
In the case of `CCOC(=O)c1sc(NC(=O)Nc2ccccc2Cl)cc1C`, the Potency is reported as active: 8.91 µM [quencher].
In the case of `Cc1ccc2[nH]c(-c3cccc(N)c3)cc2c1`, the Potency is reported as active: 14.1 µM [quencher].
For `Oc1ccc(/C=N/Nc2ccnc3cc(Cl)ccc23)cc1O`, the Potency was active: 15.8 µM [quencher].
With `Nc1ccccc1Nc1cc(-c2cccc(Cl)c2)nn1-c1ccccc1` the Potency was active: 12.6 µM [quencher].
With `CNc1cc(NS(=O)(=O)c2ccc(N)cc2)nc(NC)n1` the “activity change, negative = decrease” value was inactive: -21.9%.
With `COc1ccc(-c2c(-c3ccc(OCC(=O)NN)cc3O)n[nH]c2C(F)(F)F)cc1` the Potency was active: 22.4 µM [quencher].
In the case of `Cc1cc(C)c2oc(C(=O)Nc3ccc(S(=O)(=O)N4CCC(C)CC4)cc3)cc(=O)c2c1`, the “activity change, negative = decrease” value is reported as inactive: -4.01%.
In the case of `O=S(=O)(Nc1cc(F)ccc1F)c1ccc2[nH]c3c(c2c1)CCCC3`, the Potency is reported as active: 11.2 µM [quencher].
With `CC(=O)Nc1ccc(C2=NNC(=Nc3cccc(S(=O)(=O)N(C)C)c3)SC2)cc1` the Potency was active: 14.1 µM [quencher].
With `COC(=O)[C@@]1(Cc2ccc(F)cc2)[C@H]2c3cc(C(=O)N4CCCC4)n(CCc4ccc(O)c(O)c4)c3C[C@H]2CN1C(=O)c1ccccc1` the “activity change, negative = decrease” value was inactive: -26.8%.
In the case of `O=[N+]([O-])c1cc(Cl)ccc1N1CCN(c2ccccc2O)CC1`, the Potency is reported as active: 15.8 µM [quencher].
With `COc1cccc(-c2ccc3c(N)c(C(=O)c4ccc(Br)cc4)sc3n2)c1` the Potency was active: 2.51 µM [quencher].
For `Cc1ccc(C(=O)Nc2ccc(C(=O)N/N=C/c3c[nH]c4ccccc34)cc2)cc1`, the Potency was active: 14.1 µM [quencher].
For `Clc1cccc(CN2CCC(Cc3ccccc3)CC2)c1`, the Potency was active: 12.6 µM [quencher].
With `CCC1=C(OC(=O)N(CC)CC)N2C(=O)OC(=NCCc3c[nH]c4ccccc34)[C@]2(C)[C@H]2C1=CC[C@H]1C(=O)N(CC)C(=O)[C@H]12` the “activity change, negative = decrease” value was inactive: -17.7%.
In the case of `COc1ccc(-c2nc(SCC(=O)NC3CCCC3)c(-c3ccccc3)[nH]2)cc1OC`, the Potency is reported as active: 14.1 µM [quencher].
With `COc1cccc(-c2nc(N3CCN(Cc4ccccc4)CC3)c3ccccc3n2)c1O` the “activity change, negative = decrease” value was inactive: -1.47%.
In the case of `COc1cccc(COC(=O)c2nn(-c3ccccc3)nc2N)c1`, the “activity change, negative = decrease” value is reported as inactive: -27.6%.
For `CC1(C)OC(c2ccccc2)=C/C(=C/C=N/NC(=O)c2ccncc2)O1`, the “activity change, negative = decrease” value was inactive: 10.6%.
In the case of `COC(=O)c1ccc(NC(=O)CN2CCN(c3ccc(Cl)cc3)CC2)cc1`, the “activity change, negative = decrease” value is reported as inactive: -26%.
For `Cc1occc1C(=O)N/N=C/C(Br)=C/c1ccccc1`, the “activity change, negative = decrease” value was inactive: -28.4%.
In the case of `COC(=O)C1=C(C(=O)OC)[C@@H]2N(C)c3ccc(OC)cc3[C@@]23C[C@@H](C(=O)OC)N(S(=O)(=O)c2ccc([N+](=O)[O-])cc2)C3=N1`, the “activity change, negative = decrease” value is reported as inactive: -22.3%.
For `O=C1OCCN1C(=O)[C@H]1[C@H](c2ccc(Cl)cc2)C(c2cccc(Cl)c2)=NN1c1ccccc1`, the “activity change, negative = decrease” value was inactive: 2.52%.
In the case of `Cc1ccc(S(=O)(=O)/N=C2/C=C(C3C(=O)CC(C)(C)CC3=O)C(=O)c3ccccc32)cc1`, the Potency is reported as active: 8.91 µM [quencher].
With `C(=N\Nc1nc(-c2ccccc2)cs1)/c1ccncc1` the Potency was active: 12.6 µM [quencher].
In the case of `COc1ccc(-c2cc(=O)c3c(O)cc(O)cc3o2)cc1`, the “activity change, negative = decrease” value is reported as inactive: -22%.
In the case of `CC(=O)c1cccc(NC(=O)Nc2csc3c2CCCC3)c1`, the Potency is reported as active: 11.2 µM [quencher].
In the case of `CCN(c1ccc(OC)cc1)S(=O)(=O)c1ccc2[nH]c3c(c2c1)CCCCC3`, the Potency is reported as active: 10 µM [quencher].
In the case of `COc1cc(-c2nc3ccc(C)cn3c2Nc2ccc3c(c2)OCCO3)ccc1O`, the Potency is reported as active: 15.8 µM [quencher].
For `COc1ccc(S(=O)(=O)c2c(C)c(NS(=O)(=O)c3ccccc3)cc(C)c2O)cc1`, the “activity change, negative = decrease” value was inactive: -21.2%.
With `Cn1c(N)c(C(=O)COC(=O)c2cc(C(F)(F)F)nc3ccccc23)c(=O)n(C)c1=O` the “activity change, negative = decrease” value was inactive: -16.4%.
In the case of `Cc1ccc(-c2cc(N)n3nc(-c4ccc(C)cc4)cc3n2)cc1`, the “activity change, negative = decrease” value is reported as inactive: -29.3%.
In the case of `COc1ccc(NC(=O)c2ccc(-c3ccc(-c4noc(C)n4)cc3C)cc2)cc1OCCN(C)C`, the “activity change, negative = decrease” value is reported as inactive: -30.7%.
With `Cc1ccc(NC(=O)N2CC=C(c3c[nH]c4ccccc34)CC2)cc1Cl` the Potency was active: 14.1 µM [quencher].
With `Cn1c(NCc2c(O)ccc3ccccc23)nc2ccccc21` the Potency was active: 17.8 µM [quencher].
With `COc1cc(/C=C/c2cc(OC(C)=O)c3ccccc3n2)c(OC(C)=O)c([N+](=O)[O-])c1` the Potency was active: 12.6 µM [quencher].
In the case of `CN(C)C1C(=O)C(C(N)=O)=C(O)[C@@]2(O)C(=O)C3=C(O)c4c(O)ccc(Cl)c4C(O)[C@H]3C[C@@H]12` (stereo not given in full), the “activity change, negative = decrease” value is reported as inactive: -8.92%.
With `CCCCc1ccc(-c2csc(/C(C#N)=C/c3ccc(C)o3)n2)cc1` the “activity change, negative = decrease” value was inactive: -28.6%.
With `CCO/C=C1\C(=O)N(CC)c2ccccc21` the “activity change, negative = decrease” value was inactive: -7.75%.
With `COc1ccc(NC(=O)c2ccc(COc3ccccc3OC)o2)cc1OC` the “activity change, negative = decrease” value was inactive: -20.4%.
In the case of `Nc1nc(N)c(C=Nc2ccc(Br)cc2)c(Nc2ccc(Br)cc2)n1`, the Potency is reported as active: 10 µM [quencher].
For `CCN(CC)CCCN1C=C2C(=O)C(C)(OC(=O)CCc3ccccc3)C(=O)C=C2C=C1c1ccc(C#N)cc1` (stereo not given), the activity change, negative = decrease was inactive: -7.82% [at 11.6 µM].
For `Oc1ccc(-c2cn3c(n2)SCC3)cc1O`, the Potency was active: 14.1 µM [quencher].
In the case of `O=C(/C=C/c1ccc(-c2cccc([N+](=O)[O-])c2)o1)N1CCOCC1`, the “activity change, negative = decrease” value is reported as inactive: -24.5%.
With `CN1C=CC=C/C1=C1/SC(=S)N(Cc2ccccc2)C1=O` the “activity change, negative = decrease” value was inactive: -2.32%.
With `CCC(NC(C)C)C(O)c1ccc(O)c(O)c1` (stereo not given) the “activity change, negative = decrease” value was inactive: -30.6%.
In the case of `c1ccc(Nc2cccc(Nc3ccccc3)c2)cc1`, the Potency is reported as active: 11.2 µM [quencher].
In the case of `O=[N+]([O-])c1ccc(N=Nc2ccc(O)cc2O)cc1`, the Potency is reported as active: 14.1 µM [quencher].
For `CCC1=C(OC(=O)N(CC)CC)N2C(=O)OC(=NCCc3c[nH]c4ccccc34)[C@]2(Cc2ccccc2)[C@H]2C1=CC[C@H]1C(=O)N(CC)C(=O)[C@H]12`, the “activity change, negative = decrease” value was inactive: -12.5%.
In the case of `COc1ccccc1[C@@H]1C(c2cccc(C)c2)=NN(c2ccccc2)[C@H]1C(=O)N1CCOC1=O`, the “activity change, negative = decrease” value is reported as inactive: -2.94%.
For `CCCN(C(=O)C(=O)Nc1ccc2nc3n(c(=O)c2c1)CCCCC3)c1ccc(OCC)cc1`, the “activity change, negative = decrease” value was inactive: -7.04%.
For `O=C(O)c1ccccc1Nc1ccccc1`, the Potency was “inactive”.
In the case of `O=C(Nc1ccc(F)cc1)N1CCN(c2ccc3nnc(-c4ccc(F)cc4)n3n2)CC1`, the “activity change, negative = decrease” value is reported as inactive: -25.7%.
In the case of `CCC(=O)O[C@@]1(C(=O)CCl)C(C)CC2C3CCC4=CC(=O)C=C[C@@]4(C)[C@]3(F)C(O)C[C@]21C` (stereo not given in full), the “activity change, negative = decrease” value is reported as inactive: -26.7%.
With `CC(=O)c1ccc(NC(=O)c2ccc(NC(=O)CCS(=O)(=O)c3cccs3)cc2)cc1` the “activity change, negative = decrease” value was inactive: -29.4%.

Source: PubChem BioAssay AID1463 (National Center for Advancing Translational Sciences (NCATS), 2008)
On the % scale 0 is the no-effect control and ±100 the full control effect; potency means the concentration at half of the fitted maximal effect; tags describe the fitted curve by direction and shape or compound fluorescence and quenching.
